Test results: ChEMBL document CHEMBL4888484, “Replenishing the malaria drug discovery pipeline: Screening and hit evaluation of the MMV Hit Generation Library 1 (HGL1) against asexual blood stage Plasmodium falciparum ,using a nano luciferase reporter read-out” (2022)
Hit rate of the full screen: of about 150,000 compounds, about 540 (0.36%) showed an effect of 50% or more. The list shows a part of the results.

These compounds were tested on Plasmodium falciparum (assay: Primary screen in NF54 nanoGlo assay, in single point, at 2uM, 72h; a lower Z score goes with more inhibition). Conditions: timepoint 72 hour.
Assay type: functional, Erythrocyte
With `CN1C[C@H](c2nc(C3CC3)no2)C2(CCN(C(=O)c3ccc4c(c3)OCO4)CC2)C1` the “% Inhibition” value was -7% and the Z score was 0.86. For `CC(NC1CCCC(C2CC2)C1)c1cnccn1` (configuration not stated), the “% Inhibition” value was -6% and the Z score was 0.79. In the case of `Cc1cc(C(=O)NCc2cccc(CN(C)C)c2)c2nc3n(c2n1)CCCCC3`, the “% Inhibition” value is reported as -5% and the Z score is reported as 0.56. `CC1CN(S(=O)(=O)c2cccc(C(=O)NC3(C)CCS(=O)(=O)C3)c2)CC(C)O1` (configuration not stated) was tested, and the “% Inhibition” value was -6% and the Z score was 1.02. For `Cc1cc(CS(=O)(=O)[C@@H](C)C(=O)NC(C)C)no1`, the “% Inhibition” value was 24% and the Z score was -3.12. `O=C(CNC1(c2noc(C3CC3)n2)CCCC1)NCCc1cccs1` was tested, and the “% Inhibition” value was -14% and the Z score was 1.51. In the case of `CCN1C(=O)NC(C)(C2CCCN(Cc3nnnn3C3CC3)C2)C1=O` (configuration not stated), the “% Inhibition” value is reported as 7% and the Z score is reported as -0.85. In the case of `Cc1cc(C)cc(OCC(=O)N2CCN(S(=O)(=O)c3ccc4ccccc4c3)CC2)c1`, the “% Inhibition” value is reported as -8% and the Z score is reported as 1.32. For `C[C@H]1CN(S(=O)(=O)C[C@]23CC[C@H](CC2=O)C3(C)C)CC(=O)N1`, the “% Inhibition” value was -30% and the Z score was 2.63. `CN(C)c1nc2c(s1)CN(c1nccn3cnnc13)CC2` was tested, and the “% Inhibition” value was -12% and the Z score was 1.38. For `O=C(Nc1cc[nH]n1)c1ccc2c(c1)OCCO2`, the “% Inhibition” value was -7% and the Z score was 1.02. With `COCCN(CCC(=O)O)C(=O)CCCc1ccccc1` the “% Inhibition” value was -2% and the Z score was 0.28. With `Cc1[nH]ncc1CCCNc1ccc(F)cn1` the “% Inhibition” value was -2% and the Z score was 0.3. `COc1ccc(CN2CC[C@H](CNC(=O)c3cnc[nH]3)C2)cc1C` was tested, and the “% Inhibition” value was -3% and the Z score was 0.37. For `CCCCn1ccnc1[C@](O)(CC(C)=O)C(F)(F)F`, the “% Inhibition” value was 1% and the Z score was -0.19. With `CC(=O)N1CC(C(=O)N(Cc2ccc(C)o2)c2ccc(F)cc2)C1` the “% Inhibition” value was 1% and the Z score was -0.18. In the case of `CCNC(=O)[C@H](C)NC(=O)c1csc2c1CCN(Cc1c(C)noc1C)C2`, the “% Inhibition” value is reported as -11% and the Z score is reported as 1.23. In the case of `CCCCn1nc(CC(N)=O)nc1[C@H]1CCC(=O)N(C2CCCC2)C1`, the “% Inhibition” value is reported as -5% and the Z score is reported as 0.59. In the case of `COc1ccc(OCc2nc(C(=O)N3CC4(C)CN(C)CC(C)(C3)C4)co2)cc1`, the “% Inhibition” value is reported as 4% and the Z score is reported as -0.83. With `CCn1cc(CN2CCn3c(Cc4ccccc4)nnc3C2)c(C)n1` the “% Inhibition” value was -4% and the Z score was 0.7. With `C[C@]1(c2cccnc2)NC(=O)N(CCc2ccccc2Cl)C1=O` the “% Inhibition” value was -12% and the Z score was 0.98. In the case of `Cc1nn(CCOc2ccccc2)c(=O)n1-c1ccc(Oc2ccccc2)cc1`, the “% Inhibition” value is reported as 3% and the Z score is reported as -0.42. With `O=C(c1ncn2c1CO[C@H](c1ccccc1)C2)N1CCC(C(=O)N2CCOCC2)CC1` the “% Inhibition” value was -16% and the Z score was 1.83. In the case of `CC(O)(C(=O)NC[C@@H]1CCC[C@H]1O)C1CC1` (some centres not stated), the “% Inhibition” value is reported as -21% and the Z score is reported as 3.82. In the case of `O=C(Nc1cc(F)cc(F)c1F)N[C@H]1CCOC1`, the “% Inhibition” value is reported as -5% and the Z score is reported as 1.08. `Cc1nc([C@H](C)Nc2nc(-c3ccc(Cl)cc3)nc3c2CNC3)n[nH]1` was tested, and the “% Inhibition” value was -5% and the Z score was 0.67. For `O=C(Cn1ccc(=O)n2nccc12)Nc1ccc(Cl)c(Cl)c1`, the “% Inhibition” value was -1% and the Z score was 0.12. In the case of `O=C(Cc1csc2ccccc12)NCc1cccs1`, the “% Inhibition” value is reported as -9% and the Z score is reported as 1.34. For `O=C(NCCn1ccc2ccoc2c1=O)c1ccccc1Cl`, the “% Inhibition” value was -6% and the Z score was 1.06. In the case of `CN1CCCN(C(=O)CCn2ccc3ccccc32)CC1`, the “% Inhibition” value is reported as 11% and the Z score is reported as -1.33. In the case of `O=C(CN1C(=O)CCC1=O)N1CCN(C(=O)c2cc3c(s2)CCCCCC3)CC1`, the “% Inhibition” value is reported as -17% and the Z score is reported as 1.52. In the case of `O=c1c(Nc2ccc(OCC3CC3)cc2)nccn1C1CC1`, the “% Inhibition” value is reported as 8% and the Z score is reported as -1.3. With `CC(=O)N[C@@H]1C[C@H](Cc2ccccc2)O[C@H](c2cccc3cnccc23)C1` the “% Inhibition” value was -15% and the Z score was 1.66. `CCC1CN2CCCC2CN1C(=O)NCCc1cccc(C#N)c1` (configuration not stated) was tested, and the “% Inhibition” value was -16% and the Z score was 1.84. For `Cc1noc(C)c1C(=O)N[C@@H](C)Cc1cc2ccccc2o1`, the “% Inhibition” value was -6% and the Z score was 1.05. For `CCc1cc(-c2nc([C@H](NC(=O)OC(C)(C)C)c3ccccc3OC)no2)n[nH]1`, the “% Inhibition” value was 0% and the Z score was -0.05. With `Cc1n[nH]c(C)c1CNC(=O)c1coc(COc2cccc(C(F)(F)F)c2)n1` the “% Inhibition” value was 5% and the Z score was -0.73. In the case of `CN1C(=O)NCC12CCN(Cc1ccccc1F)CC2`, the “% Inhibition” value is reported as 9% and the Z score is reported as -1.14. In the case of `CC1(C)CC(S(=O)(=O)NC2COc3ccc4ccccc4c3C2)CO1` (configuration not stated), the “% Inhibition” value is reported as -8% and the Z score is reported as 0.81. In the case of `Cc1c(CN(C)C(=O)CCN2CCCCO2)[nH]c2ccccc12`, the “% Inhibition” value is reported as 4% and the Z score is reported as -0.55. In the case of `Cn1c(CN2CCCC2)nnc1C1CCN(C2Cc3ccccc3C2)CC1`, the “% Inhibition” value is reported as -4% and the Z score is reported as 0.72. In the case of `O=C(Nc1ccccc1C(=O)O)c1cccc(-n2cccn2)n1`, the “% Inhibition” value is reported as -5% and the Z score is reported as 0.73. For `O=C(COc1ccc2c(c1)OCO2)N(Cc1ccccc1)[C@H]1CCS(=O)(=O)C1`, the “% Inhibition” value was 8% and the Z score was -1. In the case of `CC[C@H]1COCCN1Cc1ccc(CN2CCCC2)s1`, the “% Inhibition” value is reported as 2% and the Z score is reported as -0.34. `CCCCN(C)C(=O)c1csc(-c2ccc(N3CCCC3)nc2)n1` was tested, and the “% Inhibition” value was -23% and the Z score was 2.71. For `O=C(N[C@H]1CCCNC1=O)c1coc(COc2ccc(F)cc2Cl)n1`, the “% Inhibition” value was -28% and the Z score was 2.6. `O=C(NCc1cccc(Cl)c1)c1ccc(Oc2nccnc2N2CCOCC2)cc1` was tested, and the “% Inhibition” value was -8% and the Z score was 0.98. In the case of `O=C(NC1CC1)c1cccc(NC(=O)c2nccnc2-c2nc3ccccc3s2)c1`, the “% Inhibition” value is reported as -18% and the Z score is reported as 1.8. With `COc1cc(CCC(=O)N2CCCCc3cc(Cl)ccc32)on1` the “% Inhibition” value was 6% and the Z score was -0.57. `O=C(NCc1ccncc1)c1cncc(Br)c1` was tested, and the “% Inhibition” value was -12% and the Z score was 1. `COC(=O)c1cc(CNc2ccc(Cl)cn2)c[nH]1` was tested, and the “% Inhibition” value was 6% and the Z score was -0.74. For `COCCNC(=O)c1coc(CN(Cc2cc(OC)ccc2OC)[C@@H](C)c2ccccc2)n1`, the “% Inhibition” value was -9% and the Z score was 1.86. `CC(=O)NC(C(=O)N1CC(c2ccsc2)CC1C)C(C)C` (configuration not stated) was tested, and the “% Inhibition” value was -9% and the Z score was 1.31. For `Cn1nccc1CN1CCc2nc(C(C)(C)C)ncc2C1`, the “% Inhibition” value was 28% and the Z score was -3.61. In the case of `Cn1ncnc1CN1CCC[C@@]1(c1c[nH]c2ccccc12)C(F)(F)F`, the “% Inhibition” value is reported as -2% and the Z score is reported as 0.35. For `Cc1nn(CCO)cc1CN1CCN(C)C[C@@H]1c1ccccc1`, the “% Inhibition” value was 6% and the Z score was -1.1. In the case of `COc1cccc(N2CCN(C(=O)c3n[nH]c(N)c3Cl)CC2(C)C)c1`, the “% Inhibition” value is reported as -1% and the Z score is reported as 0.11. `C[C@@H](c1ccc2c(c1)OCCO2)N(C)C(=O)NCc1n[nH]c2c1CCC2` was tested, and the “% Inhibition” value was -1% and the Z score was 0.09. With `CC1(C)[C@@H](O)[C@H]2CCCN(C(=O)Nc3ccc(-c4ccon4)cc3)[C@H]21` the “% Inhibition” value was 1% and the Z score was -0.2. For `CC(C)c1nsc(NCc2nnc3n2CC[C@H](C(F)(F)F)C3)n1`, the “% Inhibition” value was -15% and the Z score was 1.64. For `O=C(Cc1ccccc1)N1CC[C@H]2[C@H](CCCN2Cc2ccccn2)C1`, the “% Inhibition” value was -10% and the Z score was 1.32. In the case of `CCc1nn(Cc2csc3cncn23)c(=O)c(C#N)c1CC`, the “% Inhibition” value is reported as -4% and the Z score is reported as 0.74. For `O=C(Cc1ccco1)Nc1ccccc1F`, the “% Inhibition” value was -8% and the Z score was 0.89. In the case of `O=C(NC1CCCC1)N1CC[C@H](OCc2ccccc2)C1`, the “% Inhibition” value is reported as -9% and the Z score is reported as 1.39. `O=C1NC2(CCN(C(=O)Cc3ccccc3)CC2)Nc2c(Cl)cccc21` was tested, and the “% Inhibition” value was -11% and the Z score was 1.35. For `CC(CNc1ccccc1)NC(=O)C(C)CS(C)(=O)=O` (configuration not stated), the “% Inhibition” value was -15% and the Z score was 1.89. `CS(=O)(=O)N1CC(C(=O)Nc2cc(C(F)(F)F)n[nH]2)C1` was tested, and the “% Inhibition” value was -2% and the Z score was 0.43. In the case of `COc1cnc(C(=O)N2CC3(CCCC3)[C@@H]2C(C)C)nc1`, the “% Inhibition” value is reported as 0% and the Z score is reported as 0. In the case of `COCCC[C@H]1CCCCN1c1nc2c(s1)c(C)nn2C`, the “% Inhibition” value is reported as -19% and the Z score is reported as 2.54. For `COc1ccc(-c2n[nH]c(=O)c(Cc3ccccc3)n2)cc1`, the “% Inhibition” value was -3% and the Z score was 0.5. `O=C1C[C@H](NC(=O)CCC(=O)c2ccc(Cl)cc2)CN1` was tested, and the “% Inhibition” value was 1% and the Z score was -0.17. For `O=C(c1ccc(Cl)s1)N1CC(n2nccn2)C1`, the “% Inhibition” value was -8% and the Z score was 1.59. With `COc1ccc(-n2ccnc2-c2cn(C3CCNCC3)nn2)c(C)c1` the “% Inhibition” value was 4% and the Z score was -0.77. With `Cc1cc(-c2nc(C3CC3)n[nH]2)cc2sc(N)nc12` the “% Inhibition” value was -14% and the Z score was 2.62. In the case of `O=C(Cc1cc(C2CC2)no1)N[C@@H]1c2ccccc2CC[C@@H]1O`, the “% Inhibition” value is reported as -11% and the Z score is reported as 1.69. In the case of `Cc1cnc(NC(=O)c2cccc3ccccc23)s1`, the “% Inhibition” value is reported as -12% and the Z score is reported as 2.18. `Cc1ccccc1-c1nnc(/C=C/c2ccccc2)o1` was tested, and the “% Inhibition” value was -7% and the Z score was 0.92. With `Cc1cccc(N2CCN3C(=O)C(=O)NC[C@H]3C2)n1` the “% Inhibition” value was -12% and the Z score was 1.61. With `NC(=O)CN(CCC1CCCCC1)Cc1nnc(-c2cccc(Br)c2)o1` the “% Inhibition” value was -8% and the Z score was 0.78. With `CCc1nc(-c2ccc(C)c(S(=O)(=O)N3CCC(C(=O)N[C@@H](C)CC)CC3)c2)no1` the “% Inhibition” value was -11% and the Z score was 1.39. For `O=C(C[C@H]1Cn2ncc(-c3ccccc3)c2NC1=O)NC1CCCC1`, the “% Inhibition” value was -10% and the Z score was 0.88. `C[C@H]1CN(C)c2ccccc2CN1C(=O)NCC1CS(=O)(=O)c2ccccc21` (some centres not stated) was tested, and the “% Inhibition” value was -16% and the Z score was 2.1. `C[C@@H](Cc1ccco1)NC(=O)NC1CCCC1` was tested, and the “% Inhibition” value was -3% and the Z score was 0.25. In the case of `Cc1ccc2c(c1)c(C)c1n2C[C@H]2CO[C@]1(C)O2`, the “% Inhibition” value is reported as -13% and the Z score is reported as 1.68. With `CC[C@H](NS(=O)(=O)N1CCOCC1)c1nc(C)c[nH]1` the “% Inhibition” value was -5% and the Z score was 0.92. For `CCNc1nc(N)c(C(=O)Nc2cc(C)no2)s1`, the “% Inhibition” value was -8% and the Z score was 1.06.
